Measured values: PubChem BioAssay AID652104 (National Center for Advancing Translational Sciences (NCATS), 2013)
Hit rate of the full screen: of about 410,000 compounds, about 7,200 (1.8%) were called active. Inconclusive means that the source gave no clear call. Such entries were picked first, then a sample of the others. Calls come from the whole dose curve; as a rule, active = well fitted activation curve with a large enough effect; inconclusive = small, poorly fitted or top-dose-only effect, or another doubt; inactive = no such curve, though single readings can be large or run the other way. Potencies of inconclusive entries are doubtful fits and often do not repeat.

experiment: qHTS of TDP-43 Inhibitors; details: TDP-43 expressing yeast growth rescue, BacTiter-Glo, 24 h; growth rescue (activation): at 46.1 µM (top of the series) unless noted; note: nearly all actives have a fitted effect of over 50% in size; for growth rescue (activation): % of control where 0% means no effect
Method in brief: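 Luminescence from BacTiter-Glo reports growth of TDP-43-expressing yeast after 24 hr at 30 deg C with compound. Cells were raffinose-pregrown to mid-log, then seeded in galactose medium at OD600=0.02.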
Potency is the fitted concentration of half-maximal effect; tags give direction and shape of the fitted curve.

Potency, inactive:
O=C(CCNC(=O)c1ccc(Cl)cc1)NC1CCCc2ccccc21 (configuration not stated)
COC(=O)c1c(NC(=O)c2ccccc2C(=O)O)sc2c1CCC2
COc1cccc(CNC(=O)c2cc(S(=O)(=O)N3CCCCCC3)cn2C)c1
CCCc1nc(N)sc1C(=O)OCC
CCc1c(CN2CCN(c3cccc(C)c3C)CC2)csc1C
CCC(CO)Oc1cc(NC(=O)Cc2ccccc2F)c2ncn(C(C)C)c2c1 (configuration not stated)
COCCNC(=O)c1ccc(S(=O)(=O)c2ccc(Cl)cc2)c(NC(C)=O)c1
O=C1CN(C(=O)C2CCC(=O)N(CCc3ccc(Cl)cc3)C2)CCN1 (configuration not stated)
Cc1cccc(C)c1NC(=O)NCCc1c[nH]c2ccccc12
CC1CN(C2CCN(S(=O)(=O)c3ccccc3)CC2)CC(C)O1 (configuration not stated)
C=Cc1ccc(Cn2c(C(=O)O)c(CNC3CCCC3)c3ccc(C)cc32)cc1
CCOc1ccc2oc(C(=O)OCC(=O)NCC3CCCO3)c(C)c2c1 (configuration not stated)
CCCCCOc1ccc(C(=O)NCC2(c3ccccc3)CCOCC2)cc1
COc1ccc2c(c1)[C@H]1[C@H](CO2)[C@H](c2ccccc2)[C@]2(C)C(=O)N[C@H](C)C(=O)N12
c1ccc(CCc2nn3c(Cn4cnc5ccccc54)nnc3s2)cc1
CCN(c1ccccc1)c1ccc2cc(S(=O)(=O)N3CCCC3)ccc2n1
N#Cc1cccc(C(=O)Nc2ccccc2C(=O)NC2CC2)c1
Cc1c(C(=O)N(Cc2ccc(N(C)C)cc2)CC2CCCO2)oc2ccc(Cl)cc12 (configuration not stated)
Oc1oc(-c2ccc(Br)cc2)nc1C=Nc1ccc(Br)cn1

Potency, inconclusive:
O=C(CSCc1ccccc1Cl)Nc1ccc2c(c1)OCCO2 2.51 µM [activator, single point]
Cc1cc(OC(F)F)ccc1NC(=S)NCCc1ccccc1 15.8 µM [activator, partial curve]
O=C(Nc1nnc(C2=COCCO2)o1)c1ccc(S(=O)(=O)N2CCOCC2)cc1 1.12 µM [activator, partial curve]
Cc1ccsc1/C=N/NC(=S)NCc1ccccc1 10 µM [activator, partial curve]
COc1ccc(-c2cc3nc(-c4ccccc4)cc(N4CCN(C(=O)c5ccoc5)CC4)n3n2)cc1 2.82 µM [activator, full curve]
COc1cccc(OC)c1C(=O)OCC(=O)NCC1CCCCC1 12.6 µM [activator, partial curve]
C=CCNC(=O)c1ccc(-c2ccc([N+](=O)[O-])cc2)o1 15.8 µM [activator, single point]
COc1cccc(-c2nnc(SCC(=O)N3CCCc4ccccc43)o2)c1 12.6 µM [activator, partial curve]
CCOc1ccc(S(=O)(=O)Nc2ccc3oc(C)c(C(=O)OC(C)C)c3c2)cc1 8.91 µM [activator, partial curve]
Cc1noc(C)c1COc1ccccc1C(=O)NCc1ccccc1Cl 7.94 µM [activator, partial curve]
O=C(/C=C\Nc1ccc2c(c1)OCO2)c1cccs1 35.5 µM [activator, partial curve, poor fit]
COc1ccc(C(=O)N2CCN(c3nc(C4CC4)nc4sc(C)c(C)c34)CC2)cc1 31.6 µM [activator, single point]
COc1cccc(N2CCc3c(C)nc4ccc(Cl)cc4c32)c1 3.98 µM [activator, partial curve]
CCC(C)n1ncn(-c2ccc(N3CCN(c4ccc(OCC5COC(Cn6cncn6)(c6ccc(Cl)cc6Cl)O5)cc4)CC3)cc2)c1=O (configuration not stated) 28.2 µM [activator, partial curve]
CC(=O)c1sc2nc(C)cc(C)c2c1N 25.1 µM [activator, single point]
O=C([C@H]1O[C@@H](n2ccc(=O)[nH]c2=O)[C@H](O)[C@@H]1O)N1CCN(Cc2ccccn2)CC1 5.62 µM [activator, partial curve]
CSc1ccc(-c2cccc3nncn23)cc1 12.6 µM [activator, partial curve]
COc1ccc(CC(N)c2csc(NC(=O)Nc3ccc(C(C)C)cc3)n2)cc1 (configuration not stated) 31.6 µM [activator, single point]
O=C(CCS(=O)(=O)c1ccccc1)OCc1ccc([N+](=O)[O-])cc1 22.4 µM [activator, single point]
O=C(C1COc2ccccc2O1)N(Cc1cccnc1)c1nc2ccc(Cl)cc2s1 (configuration not stated) 35.5 µM [activator, single point]
Cc1ccc(S(=O)(=O)N2CCCCC2C)cc1[N+](=O)[O-] (configuration not stated) 11.2 µM [activator, partial curve]
COc1ccc(/C=C/C(=O)OCC(=O)NCCc2ccccc2)c(OC)c1 20 µM [activator, single point]
O=C(c1cccs1)N1CCN(c2cccc(Cl)c2)CC1 11.2 µM [activator, partial curve]
CSc1ccccc1NC(=O)C1=CC(c2cccs2)=NS(=O)(=O)N1C 12.6 µM [activator, single point]
O=C(C1CC1)N1N=C(c2cccc(Br)c2)CC1(O)C(F)(F)F (configuration not stated) 35.5 µM [activator, single point]
CCOc1cc(N2CCOCC2)c(OCC)cc1NC(=O)COc1cccc(CC)c1 35.5 µM [activator, partial curve]
CCC(=O)Nc1c(C)ccc2nsnc12 10 µM [activator, partial curve, poor fit]
Cc1ccc(C)c(C(=O)CCC(=O)Nc2ccc(F)cc2)c1 4.47 µM [activator, full curve]
O=S(=O)(c1ccc(Cl)cc1)c1snnc1-c1ccccc1 25.1 µM [activator, single point]
N#Cc1ccc(OCC(=O)n2cc(C(=O)c3cc(Cl)cc(Cl)c3O)cn2)cc1 20 µM [activator, single point]
COc1ccc(-c2nnc(SCc3nnc(-c4ccccc4)o3)n2-c2ccccc2)cc1 3.16 µM [activator, partial curve]
Cc1cc(=O)[nH]c(SCc2ccc(Cl)cc2)n1 14.1 µM [activator, single point]
CC(Oc1ccc(C#N)cc1)C(=O)c1ccc(F)c(F)c1 (configuration not stated) 35.5 µM [activator, single point]
Cc1ccc(-c2csc3ncn(-n4c(C)ccc4C)c(=O)c23)o1 28.2 µM [activator, single point]
COc1cccc(NC(=O)COC(=O)c2cccnc2)c1 35.5 µM [activator, single point]
Cc1sc2ncnc(SCC(=O)c3cccs3)c2c1C 3.98 µM [activator, partial curve]
O=C1[C@@H](c2ccccc2)CC[C@@H]2C=CC[C@H]3CCN1[C@@H]32 10 µM [activator, partial curve]
CN(Cc1c(C(=O)N/N=C/c2ccccc2)nnn1-c1nonc1N)C1CCCCC1 20 µM [activator, single point]
CCOC(=O)c1c(C)[nH]c(C)c1S(=O)(=O)N1CCC(C(=O)N2CCN(c3ccccc3)CC2)CC1 3.16 µM [activator, partial curve]
Oc1[nH]c2ccccc2c1N=Nc1nc(Nc2ccccc2)nc(N2CCOCC2)n1 7.94 µM [activator, full curve, poor fit]
CCOc1ccc(Nc2ncnc3c2nc2n3CCCC2)cc1 11.2 µM [activator, partial curve]
COc1ccccc1C=C1CCc2ccccc2C1=O 35.5 µM [activator, partial curve]
Cn1c(C(=O)N2CCCC(Nc3ccc(F)cc3)C2)cc2ccccc21 (configuration not stated) 12.6 µM [activator, single point]
O=C(O)C1CCCCC1C(=O)OCCCCOC(=O)C1CCCCC1C(=O)O (configuration not stated) 35.5 µM [activator, single point]

Potency, active:
O=C1CCCCC1C(Nc1ccc(Br)cc1)c1ccccc1 (configuration not stated) 12.6 µM
O=C(Cc1ccccc1)Nc1cc(C(=O)c2ccccc2)ccc1N1CCOCC1 12.6 µM
O=S(=O)(NCc1csc(-c2cccs2)n1)c1cccc(C(F)(F)F)c1 17.8 µM
O=C(Oc1ccc(O)cc1)C12CC3CC(CC(C3)C1)C2 14.1 µM
Cc1ccc(SCC(=O)O/N=C(\N)c2cccnc2)cc1 10 µM
COc1cccc(N2CCN(c3ncnc4c3nc3n4CCCCC3)CC2)c1 17.8 µM
O=S(=O)(Nc1nc(SCc2ccc(Cl)cc2)n[nH]1)c1ccc(F)cc1 20 µM
O=C1C=C(c2cc(F)ccc2F)C[C@@H](c2ccc(Cl)cc2)C1 20 µM

Growth rescue (activation), inconclusive:
COc1ccc(N2CCN(c3csc4ccc(Cl)cc4c3=O)CC2)cc1 -93.1% [activator]
